Measurements: article PMC4336329 (PLoS ONE, 2015)
In all, about 310,000 compounds went through this assay and about 14,000 (4.5%) showed an effect of 50% or more. The effect is printed as a negative number. The list shows a part of the results.

Each compound was assayed against human ether-à-go-go-related gene (hERG) potassium channel (human, UniProt Q12809) (assay: primary screen, population patch clamp on CHO cells stably expressing hERG).
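Note: peak tail current of the secondary pulse compared with the same well before compound.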

Sequence of human ether-à-go-go-related gene (hERG) potassium channel (Q12809 whole entry, looked up): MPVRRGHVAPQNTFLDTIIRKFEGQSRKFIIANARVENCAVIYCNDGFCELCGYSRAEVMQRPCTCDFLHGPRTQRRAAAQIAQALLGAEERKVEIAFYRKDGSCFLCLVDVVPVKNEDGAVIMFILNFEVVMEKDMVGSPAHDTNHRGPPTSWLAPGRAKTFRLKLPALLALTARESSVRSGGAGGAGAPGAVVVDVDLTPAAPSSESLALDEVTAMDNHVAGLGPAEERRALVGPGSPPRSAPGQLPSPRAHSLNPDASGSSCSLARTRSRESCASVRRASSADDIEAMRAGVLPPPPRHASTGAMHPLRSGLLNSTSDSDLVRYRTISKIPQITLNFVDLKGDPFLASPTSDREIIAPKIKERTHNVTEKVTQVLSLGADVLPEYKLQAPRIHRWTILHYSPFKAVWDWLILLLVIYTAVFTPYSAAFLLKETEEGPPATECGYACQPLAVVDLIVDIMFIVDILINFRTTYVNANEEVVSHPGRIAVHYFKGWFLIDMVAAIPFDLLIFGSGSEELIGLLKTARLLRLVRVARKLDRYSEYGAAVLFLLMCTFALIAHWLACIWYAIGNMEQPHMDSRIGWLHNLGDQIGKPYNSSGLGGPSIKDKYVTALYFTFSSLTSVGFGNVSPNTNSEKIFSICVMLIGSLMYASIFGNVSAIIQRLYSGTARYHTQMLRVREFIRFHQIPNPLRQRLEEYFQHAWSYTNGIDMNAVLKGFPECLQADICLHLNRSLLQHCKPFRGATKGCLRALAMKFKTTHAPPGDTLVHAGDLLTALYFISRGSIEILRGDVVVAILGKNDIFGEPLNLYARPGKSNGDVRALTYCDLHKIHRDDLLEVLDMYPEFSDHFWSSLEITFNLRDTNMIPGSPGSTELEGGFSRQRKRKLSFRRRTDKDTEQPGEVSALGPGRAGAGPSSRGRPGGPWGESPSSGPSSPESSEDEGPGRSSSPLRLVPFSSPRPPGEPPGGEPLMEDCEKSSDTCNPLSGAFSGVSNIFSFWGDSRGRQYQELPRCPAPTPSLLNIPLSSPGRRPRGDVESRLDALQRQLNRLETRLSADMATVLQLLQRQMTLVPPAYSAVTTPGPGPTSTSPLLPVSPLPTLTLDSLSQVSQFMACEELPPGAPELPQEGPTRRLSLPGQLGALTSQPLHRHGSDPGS

First: Cc1cc2c(c(=O)o1)C1(C(=O)N(C)c3ccccc31)C(C#N)=C(N)O2 (stereo not drawn)
Second: Cc1ccc(C(=O)Nc2c(C#N)c(C)c(C)n2Cc2ccccc2)cc1
The “hERG current change (%, negative = inhibition) at 10uM” value of the first is higher: 18.8% for the first, 13.2% for the second.

Compared with Cc1ccc2c(Cl)cc(Cl)c(OCC(=O)NC(=O)NCc3ccco3)c2n1, CCCCc1ccc(NC(=O)CSc2nnc(CNC(=O)c3ccco3)o2)cc1 is higher in “hERG current change (%, negative = inhibition) at 10uM” value: -11.7% for the first, -1.33% for the second.

Compared with CCN(c1ccc(OC)cc1)S(=O)(=O)c1csc(C(=O)N2CCCC2)c1, CCOC(=O)COc1ccc(S(=O)(=O)Nc2ccc(C)cc2)cc1 is higher in “hERG current change (%, negative = inhibition) at 10uM” value: -35% for the first, -33% for the second.

First: Cl.O=C(CN1CCCC1)Nc1ccc(OC(F)(F)F)cc1
Second: CN1CCc2ccc(NC(=O)c3ccc(C(F)(F)F)cc3)cc2C1
The “hERG current change (%, negative = inhibition) at 10uM” value of the first is higher: -41.1% for the first, -53.8% for the second.

Compared with Nc1nc(CSc2ccccn2)nc(Nc2ccccc2)n1, CCN(c1ccccc1)c1cc2ccccc2c(=O)[nH]1 is higher in “hERG current change (%, negative = inhibition) at 10uM” value: 1.81% for the first, 3.64% for the second.

Compared with Cc1ccccc1OCC(=O)Nn1c(COc2ccccc2)nc2ccccc2c1=O, CCN(CC(=O)Nc1ccccc1C(=O)Nc1ccccc1)Cc1nc2ccccc2c(=O)[nH]1 is lower in “hERG current change (%, negative = inhibition) at 10uM” value: -26.1% for the first, -75.6% for the second.

First: CN1CCN(C(=O)CSc2nc(-c3ccco3)cc(C(F)(F)F)n2)CC1
Second: CN1CCN(C(c2ccc(Cl)cc2)c2cc(Cl)c3cccnc3c2O)CC1 (stereo not drawn)
The “hERG current change (%, negative = inhibition) at 10uM” value of the first is higher: 15.3% for the first, 7.12% for the second.

First: COc1cccc(-c2noc(-c3ccc(Br)o3)n2)c1
Second: COc1ccc2c(c1)cc(C)c1nnc(SCC(=O)N(C)c3nc(-c4ccccc4)cs3)n12
The “hERG current change (%, negative = inhibition) at 10uM” value of the first is higher: 25.3% for the first, 22.3% for the second.

Compared with COc1ccc(NC(=O)C2CC(=O)n3c(nc4ccccc43)N2)cc1 (stereo not drawn), COc1ccc(CC(=O)NNS(=O)(=O)c2ccccc2[N+](=O)[O-])cc1 is higher in “hERG current change (%, negative = inhibition) at 10uM” value: 4.58% for the first, 20.3% for the second.

First: C/C(=N\NC(=O)c1c(Cl)c(C)nn1C)c1ccc(NC(=O)c2ccncc2)cc1
Second: COc1cccc(/C=N/NC(=O)c2ccncc2)c1OC(=O)c1ccc(Br)cc1
The “hERG current change (%, negative = inhibition) at 10uM” value of the first is lower: 7.84% for the first, 13.3% for the second.

Going from Cc1ccc(C(=O)N/C(=C\c2ccco2)C(=O)NC2CCS(=O)(=O)C2)cc1 (stereo not drawn) to Cc1ccc(NC2CCCN(C(=O)c3ccc(F)cc3)C2)cc1C (stereo not drawn), the “hERG current change (%, negative = inhibition) at 10uM” value rises from -18.3% to -9.71%.

Compared with COc1cc(OC)c(NC(=O)C2CCN(S(=O)(=O)c3ccc4c(c3)CC(C)N4C(C)=O)CC2)cc1Cl (stereo not drawn), CCn1c(CNC(=O)c2cc(OC)c(OC)c(OC)c2)cc2ccccc21 is higher in “hERG current change (%, negative = inhibition) at 10uM” value: 5.17% for the first, 6.52% for the second.

Going from Cc1cc(C)n2nc(C(=O)Nc3ccc(N4CCOCC4)cc3)nc2n1 to O=C(Nc1ccccc1N1CCOCC1)c1ccc(F)c(S(=O)(=O)N2CCOCC2)c1, the “hERG current change (%, negative = inhibition) at 10uM” value falls from 1.03% to -12.6%.

First: CCOC(=O)C(CC)Sc1cc(C)nc2ccc(OC)cc12 (stereo not drawn)
Second: CCOC(=O)CC(NC(=O)c1cccc2c1C(=O)N(Cc1cccnc1)C2)c1ccc(OCC)c(OC)c1 (stereo not drawn)
The “hERG current change (%, negative = inhibition) at 10uM” value of the first is higher: -13.4% for the first, -14.6% for the second.

Compared with O=C(NCC1CCCO1)Nc1cccc(Cl)c1 (stereo not drawn), CN(C)c1cccc(C(=O)NCC(c2ccco2)N(C)C)c1 (stereo not drawn) is higher in “hERG current change (%, negative = inhibition) at 10uM” value: -2.55% for the first, 5.5% for the second.

Going from Cc1ccc(OCC(=O)NN=C2c3ccccc3-c3ccccc32)cc1 to CCC(=O)Nc1ccccc1-c1nc2ccccc2[nH]c1=O, the “hERG current change (%, negative = inhibition) at 10uM” value rises from -16.3% to 17.1%.

Going from OCCN(Cc1ccccc1)C(=S)Nc1ccc(Cl)cc1Cl to O=C(NCc1ccccn1)c1ccc(CS(=O)(=O)Cc2ccc(Cl)cc2)o1, the “hERG current change (%, negative = inhibition) at 10uM” value falls from -0.423% to -12.1%.

Compared with Cc1csc(N/N=C\c2cccnc2)n1, CNC(=O)c1c(Cl)cnn1-c1ccc(C)cc1 is higher in “hERG current change (%, negative = inhibition) at 10uM” value: -8.35% for the first, 21.6% for the second.

Compared with CCOC(=O)C1=C(C)NC(=S)NC1c1cccs1 (stereo not drawn), Cc1cccc(OC(=O)CN2C(=O)C3C4CCC(C4)C3C2=O)c1C (stereo not drawn) is lower in “hERG current change (%, negative = inhibition) at 10uM” value: 18.9% for the first, 7.14% for the second.

Compared with COc1ccc(NC(=O)c2cc3sccc3n2Cc2ccc(F)cc2)cc1OC, OC(CSc1c(Cl)cccc1Cl)CN1CCN(c2ccc(F)cc2)CC1 (stereo not drawn) is lower in “hERG current change (%, negative = inhibition) at 10uM” value: -8.54% for the first, -40.3% for the second.

Going from Cc1[nH]c2ccccc2c1C(=O)CSC(=S)N1CCCCC1 to O=C(Cc1c[nH]c2ccccc12)N[C@@H](Cc1c[nH]c2ccccc12)C(=O)O, the “hERG current change (%, negative = inhibition) at 10uM” value rises from -8.66% to 13.1%.

Going from CCO.N#CC1=C(N)C(C#N)(C#N)C(c2cccnc2)C2CC(c3ccccc3)CC=C12 (stereo not drawn) to Oc1ccccc1-c1nc2ccccc2nc1-c1ccccc1, the “hERG current change (%, negative = inhibition) at 10uM” value falls from 8.55% to -3.36%.

With Cc1nc2cc(Cl)c([N+](=O)[O-])cc2s1 the “hERG current change (%, negative = inhibition) at 10uM” value was -42.2%.
